In PubChem BioAssay (NCATS):
This list was built around the results that the source calls inconclusive (neither active nor inactive); the mix of calls is not that of the screen. For some of these results: No potency is given beside an inconclusive call; the fits are too rough. The source made the active and inactive calls. Unless noted, calls follow the shape of the dose curve; as a rule, active = well fitted curve in the direction sought with a large enough effect; inconclusive = small, poorly fitted or top-dose-only effect, or another doubt; inactive = no such curve, though single readings can be large; an effect the other way counts as inactive or inconclusive.

How the values were obtained:
[1] = NFAT Signaling Pathway (AID 444; active = well fitted curve in either direction with a large enough effect, not every such curve was filed as active; inconclusive = small, poorly fitted or top-dose-only effect, or another doubt;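 also: carbachol stimulus at about its EC50 of 1 µM final; % is scaled to controls: 0 for no effect and ±100 for the full control effect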); conditions: Jurkat NFAT-bla M1, carbachol, beta-lactamase ratio, 5 h; at 17.2 µM (top of the series)
How it was run: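 Read-out: CCF4 FRET ratio (460 nm/530 nm) after 1 h RT dye loading, used for %activity and AC50 from titration series. Cells: Jurkat NFAT-β-lactamase/M1 line, treated with compound plus 1 uM carbachol for 5 h, 37 °C.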

[2] = system: FAB9; experiment: qHTS profiling for inhibitors of Plasmodium falciparum proliferation (AID 504749);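 also: 0% = DMSO vehicle and full inhibition = artemisinin control; nearly all actives have a fitted effect of over 60% in size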; conditions: P. falciparum in erythrocytes, SYBR Green DNA, 72 h; series mostly up to 28.7 µM
How it was run: (§1)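 In a 72 h erythrocytic culture (37 C, humidified, 5% CO2) at 2.5% hematocrit and 0.3% starting parasitemia, compounds were tested; SYBR Green I in detergent lysis buffer stained parasite DNA overnight.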

[3] = system: CP266; experiment: as above; conditions: P. falciparum in erythrocytes, SYBR Green DNA, 72 h; series mostly up to 28.7 µM
How it was run: as §1

[4] = S16 Schwann cell viability assay (CellTiter-Glo assay) (AID 624031);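 also: native untransfected S16 rat Schwann cells; nearly all actives have a fitted effect of over 70% in size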; also: potency is read from the fitted curve at half-maximal effect
How it was run: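 Counter-screen for cytotoxicity: parental S16 rat Schwann cells lacking the PMP22 reporters, treated 24 h with compound, viability from cellular ATP by CellTiter-Glo luminescence, normalized to DMSO (0%) and no-cell wells.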

[5] = qHTS of pediatric cancer cell lines to identify multiple opportunities for drug repurposing: Confirmatory screen for DAOY cells (AID 1347114); also: % is scaled to controls: 0 for no effect and ±100 for the full control effect; nearly all actives have a fitted effect of over 65% in size
How it was run: (§2)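 Viability measured as metabolically active cells via CellTiter-Glo luminescence following 48 hours of compound exposure, 11-point dilutions in confirmatory testing. 500-1,000 cells/well plated 5 hours before dosing; controls were DMSO and 2.3 µM bortezomib.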

[6] = qHTS of pediatric cancer cell lines to identify multiple opportunities for drug repurposing: Confirmatory screen for NB-EBc1 cells (AID 1347115); conditions: NB-EBc1 neuroblastoma cells, viability (cytotoxicity); activity change, negative = cytotoxic: at 45.9 µM (top of the series);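 also: cells exposed to compound for 48 h before the viability read; nearly all actives have a fitted effect of over 45% in size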; also: potency is read from the fitted curve at half-maximal effect; as to activity change, negative = cytotoxic: % is scaled to controls: 0 for no effect and ±100 for the full control effect
How it was run: (§3)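 Cells (500-1,000/well) rested 5 h, then received compounds for 48 h; metabolically active cells were measured by CellTiter-Glo luminescence. Final concentrations spanned up to 46 µM (MIPE, 11-point) or 0.59 nM-46 µM (NPC, 8-point) in primary screens, 11-point in follow-ups.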

[7] = qHTS of pediatric cancer cell lines to identify multiple opportunities for drug repurposing: Confirmatory screen for SJ-GBM2 cells (AID 1347116); also: nearly all actives have a fitted effect of over 60% in size; also: potency is read from the fitted curve at half-maximal effect
How it was run: as §2

[8] = qHTS of pediatric cancer cell lines to identify multiple opportunities for drug repurposing: Confirmatory screen for TC32 cells (AID 1347118);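 also: potency is read from the fitted curve at half-maximal effect; cells exposed to compound for 48 h before the read; nearly all actives have a fitted effect of over 65% in size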
How it was run: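 Measured quantity: luminescence from CellTiter-Glo, reflecting metabolically active TC32 cells following 48 h of compound. Curves came straight from multi-point titrations, with 8 or 11 points in primary and 11 in confirmatory screening.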

[9] = qHTS of pediatric cancer cell lines to identify multiple opportunities for drug repurposing: Confirmatory screen for MG 63 (6-TG R) cells (AID 1347119); also: potency is read from the fitted curve at half-maximal effect; nearly all actives have a fitted effect of over 55% in size
How it was run: as §3

[10] = Quantitative High-Throughput drug screen in 47 multiple myeloma cell lines against the NCATS MIPE library collection: FR4_PLB cell viability assay (AID 1918924;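 also: 100% = DMSO-treated cells and 0% = wells with media only; nearly all actives have a fitted effect of over 35% in size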)
How it was run: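 Approved and investigational drugs from MIPE 4.0 were added by pin tool to 500 cells per well. After 48 hours at 37C, ATP-based CellTiter-Glo luminescence indicated remaining viability.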

[11] = Quantitative High-Throughput drug screen in 47 multiple myeloma cell lines against the NCATS MIPE library collection: MOLP8_DSMZ cell viability assay (AID 1918977);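 also: 100% = DMSO-only wells and 0% = media-only wells without cells; nearly all actives have a fitted effect of over 45% in size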
How it was run: (§4)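 ATP-based luminescence (CellTiter-Glo, 5 min RT incubation) quantified surviving cells following two days' treatment with MIPE 4.0 agents at 37 °C, 5% CO2.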

[12] = Quantitative High-Throughput drug screen in 47 multiple myeloma cell lines against the NCATS MIPE library collection: U266_ATCC cell viability assay (AID 1919864);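 also: 0% = media-only wells without cells and 100% = DMSO-only wells; nearly all actives have a fitted effect of over 35% in size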
How it was run: as §4

[13] = system: astro; experiment: Drug repurposing screens with cells derived from glioblastoma tumor samples (AID 1345199); conditions: viability, ATP luminescence, 48 h; activity, negative = cell killing: at 45.9 µM (top of the series); also: % is scaled to controls: 0 for no effect and ±100 for the full control effect; nearly all actives have a fitted effect of over 40% in size
How it was run: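 Primary testing used CD133+ neurospheres from four GBM patients, seven concentrations, 48 h exposure and ATP-based viability; confirmation added three slower-growing patient lines.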

[14] = qHTS of pediatric cancer cell lines to identify multiple opportunities for drug repurposing: Primary screen for control Hh wild type fibroblast cells (AID 1347106); also: potency is read from the fitted curve at half-maximal effect; nearly all actives have a fitted effect of over 55% in size
How it was run: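 Cells (500-1,000/well) in growth media were settled 5 h at 37 degrees C, then given compounds for 48 h. Viability was read as CellTiter-Glo luminescence. Primary runs used MIPE at 11 points (0.78 nM-46 µM) and NPC at 8 points (0.59 nM-46 µM); follow-ups used 11 points.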

[15] = Quantitative High-Throughput drug screen in 47 multiple myeloma cell lines against the NCATS MIPE library collection: KMS21BM_JCRB cell viability assay (AID 1918974); conditions: ATP luminescence, 48 h; viability: at 45.8 µM (top of the series); also: potency is read from the fitted curve at half-maximal effect
How it was run: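 qHTS of the MIPE 4.0 collection: 500 myeloma cells/well, 48 h drug exposure at 37C in 5% CO2, then CellTiter-Glo for 5 min at room temperature before luminescence reading.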

[16] = Quantitative High-Throughput drug screen in 47 multiple myeloma cell lines against the NCATS MIPE library collection: KMS11_JCRBsus cell viability assay (AID 1919873); also: potency is read from the fitted curve at half-maximal effect; nearly all actives have a fitted effect of over 50% in size
How it was run: as §4

[17] = qHTS for identification of novel therapeutic agents for treatment of microphthalmiaassociated transcription factor (MiT) renal cell carcinoma (RCC) (AID 1963991; calls by dose curve; also: potency is read from the fitted curve at half-maximal effect); conditions: TFE3-RCC UOK109 viability, CellTiter-Glo, 48 h; active = Z-AUC below -0.8 in all three lines
How it was run: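 Viability of three TFE3-fusion renal carcinoma lines measured by CellTiter-Glo after 48 h treatment with each of 1912 compounds at 11 concentrations. Responses scaled between DMSO (100%) and empty wells (0%) before curve fitting.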
Tags tell the direction and shape of the fitted curve.

CC(=O)N[C@@H](CS)C(=O)O
activity change, negative = inhibition [1]: inactive: 6.86%
Potency [2]: inactive

C[C@H]1COc2c(C3(N)CC3)c(F)cc3c(=O)c(C(=O)O)cn1c23
Potency [3]: inactive

O=C(NCN1CCOCC1)c1cnccn1
Potency [4]: inactive

COc1cc(C(=O)N2CCCCCCC2)cc(OC)c1OC
Potency [4]: inconclusive [cytotoxic, single point]
Potency [2]: inactive

OCCOCCN1CCN(C(c2ccccc2)c2ccc(Cl)cc2)CC1 (stereo not given)
activity change, negative = inhibition [1]: inconclusive: -69.8% [inhibitor]

O=C1c2c(O)cccc2[C@@H]([C@@H]2O[C@H](CO)[C@@H](O)[C@H](O)[C@H]2O)c2cc(CO)cc(O)c21
Potency [5]: inactive
Potency [6]: inconclusive [cytotoxic, single point]
Potency [7]: inconclusive [cytotoxic, single point]
Potency [8]: inconclusive [cytotoxic, single point]
Potency [9]: inconclusive [cytotoxic, single point]
Potency [10]: inactive
Potency [11]: inactive
Potency [12]: inactive
Potency [13]: inactive

CN[C@H]1[C@@H](O)[C@@H]2O[C@@H]3O[C@H](C)CC(=O)[C@]3(O)O[C@@H]2[C@@H](NC)[C@H]1O
Potency [14]: active: 3.72 µM
Potency [5]: inactive
Potency [6]: inactive
Potency [7]: inactive
Potency [8]: inconclusive [cytotoxic, single point]
Potency [9]: inconclusive [rising, full curve]
Potency [15]: active: 0.418 µM
Potency [16]: inconclusive [cytotoxic, partial curve, poor fit]
Potency [17]: inconclusive [falling, full curve]
